From the antibiotic and cytotoxicity screens of Wong et al. (2023) come the findings set out here.

The other results are listed elsewhere or left out.

For the test, the system named is HSkMC (human skeletal muscle cells). Briefly: cytotoxicity call (relative viability < 0.9). The note with it: 10 µM.
As for `C[C@@H]1CCCCO[C@@H](CN(C)Cc2ccncc2)[C@@H](C)CN([C@@H](C)CO)C(=O)c2cc(NC(=O)Nc3cccc4ccccc34)ccc2O1`, the cytotoxicity call was “inactive”. `CO[C@H]1CN(C)C(=O)c2cc(NS(=O)(=O)CC(F)(F)F)ccc2OC[C@H](C)N(Cc2cccnc2)C[C@H]1C`: the cytotoxicity call was “inactive”. With `CC12CCC(=O)C=C1CCC1C2C(O)CC2(C)C1CCC2(O)C(=O)COC(=O)CCC(=O)O` (stereo not given), the cytotoxicity call was “inactive”. As to `C[C@@H]1CN([C@H](C)CO)S(=O)(=O)c2ccc(-c3ccc(C#N)cc3)cc2O[C@H]1CN(C)C(=O)CN(C)C`, the cytotoxicity call was “inactive”. The same measure for `CC(C)CC#Cc1ccc2c(c1)O[C@H](CN(C)C(=O)C1CCOCC1)[C@H](C)CN([C@@H](C)CO)S2(=O)=O`: “inactive”; for `C[C@@H]1CN([C@@H](C)CO)C(=O)c2cc(NC(=O)CCCN(C)C)ccc2O[C@@H]1CN(C)C(=O)NC1CCCCC1`: “inactive”. On to `O=C(C[C@H]1C=C[C@H](NS(=O)(=O)c2ccc(F)cc2)[C@@H](CO)O1)NCc1ccc(Cl)c(Cl)c1`, for which the cytotoxicity call was “inactive”. Turning to `C[C@@H]1CN([C@H](C)CO)C(=O)c2cc(C#CCN(C)C)cnc2O[C@@H]1CN(C)Cc1ccc2c(c1)OCO2`, the cytotoxicity call was “inactive”. With `COc1ccc(NC(=O)Nc2ccc3c(c2)C(=O)N([C@@H](C)CO)C[C@H](C)[C@H](CN(C)C(=O)Nc2ccccc2)OCCCC[C@@H](C)O3)cc1` the entry was “inactive”; with `Cc1ccccc1CCCCN`, “inactive”. As for `C[C@@H]1CN([C@@H](C)CO)C(=O)c2c(c3ccccc3n2C)-c2ccccc2CO[C@@H]1CN(C)C(=O)Nc1cccc(F)c1`, the cytotoxicity call was “inactive”.

As for `C[C@@H]1CCCCO[C@H](CN(C)S(=O)(=O)c2ccc(F)cc2)[C@@H](C)CN([C@@H](C)CO)C(=O)c2cc(NS(C)(=O)=O)ccc2O1`, the cytotoxicity call was “inactive”.

Turning to `COc1ccc(CN(C)C[C@@H]2OCCCC[C@H](C)Oc3ccc(NS(=O)(=O)c4ccc(F)cc4)cc3C(=O)N([C@@H](C)CO)C[C@@H]2C)cc1`, the cytotoxicity call was “inactive”. With `Cc1ccc(S(=O)(=O)Nc2ccc3c(c2)C(=O)N([C@H](C)CO)C[C@@H](C)[C@H](CN(C)Cc2ccc4c(c2)OCO4)OCCCC[C@H](C)O3)cc1` the entry was “inactive”; with `C[C@@H]1CN([C@H](C)CO)C(=O)c2cc(NC(=O)CCCN(C)C)ccc2O[C@H]1CN(C)Cc1ccccc1`, “inactive”. The same measure for `CCCCCCCCCCCCCCCCOCCCOP(=O)(O)CO[C@H](CO)Cn1ccc(N)nc1=O`: “inactive”. The same measure for `COCCCOc1cc(CC(CC(N)C(O)CC(C(=O)NCC(C)(C)C(N)=O)C(C)C)C(C)C)ccc1OC.O=C(O)C=CC(=O)O` (stereo not given): “inactive”; for `C[C@@H]1CN([C@H](C)CO)C(=O)Cc2cc(NS(=O)(=O)c3cccs3)ccc2O[C@@H]1CN(C)C(=O)Nc1cccc2ccccc12`: “inactive”. In the case of `CCOc1nn(CC)cc1C(=O)O`, the cytotoxicity call is “inactive”. With `COc1ccc(S(=O)(=O)Nc2ccc3c(c2)C(=O)N([C@H](C)CO)C[C@@H](C)[C@@H](CN(C)C(=O)Nc2cccc4ccccc24)O3)cc1` the entry was “inactive”; with `COc1ccccc1-c1ccc2c(c1)O[C@@H](CN(C)S(=O)(=O)c1ccccc1)[C@@H](C)CN([C@@H](C)CO)S2(=O)=O`, “inactive”; with `C[C@@H]1CN([C@@H](C)CO)C(=O)Cc2cc(NS(C)(=O)=O)ccc2O[C@H]1CN(C)C(=O)Nc1ccc(C(F)(F)F)cc1`, “inactive”. In the case of `CNCCCN1c2ccccc2CCc2ccccc21.Cl`, the cytotoxicity call is “inactive”. Consider `C[C@@H]1CN([C@H](C)CO)C(=O)c2cccc(NS(=O)(=O)c3cn(C)cn3)c2O[C@H]1CN(C)C(=O)NC1CCCCC1`, for which the cytotoxicity call is “inactive”.

As to `C[C@@H]1CCCCO[C@@H](CN(C)S(=O)(=O)c2ccc(Cl)cc2)[C@@H](C)CN([C@@H](C)CO)C(=O)c2cc(NC(=O)Nc3cccc4ccccc34)ccc2O1`, the cytotoxicity call is “inactive”. The same measure for `COc1cccc(S(=O)(=O)Nc2ccc3c(c2)OC[C@H](C)N(C(=O)Cc2cccnc2)C[C@@H](C)[C@@H](OC)CN(C)C3=O)c1`: “inactive”; for `COCCNC(=O)C[C@@H]1C[C@H]2c3cc(NC(=O)CN(C)C)ccc3O[C@H]2[C@H](CO)O1`: “inactive”; for `C[C@@H]1CN([C@H](C)CO)C(=O)c2cc(C#Cc3ccccc3F)cnc2O[C@@H]1CN(C)S(=O)(=O)c1ccccc1`: “inactive”.

Regarding `C[C@H]1CN([C@@H](C)CO)C(=O)c2cc(NC(=O)Nc3ccc(C(F)(F)F)cc3)ccc2O[C@H]1CN(C)Cc1ccc(-c2ccccc2)cc1`, the cytotoxicity call was “active”.

`C[C@@H]1CN([C@H](C)CO)S(=O)(=O)c2ccc(Br)cc2O[C@@H]1CN(C)C(=O)NC1CCCC1`: the cytotoxicity call was “inactive”. The same measure for `C[C@H]1CN([C@@H](C)CO)C(=O)c2c(c3ccccc3n2C)-c2ccccc2CO[C@@H]1CN(C)Cc1ccccc1C(F)(F)F`: “active”; for `C[C@@H]1CCCCO[C@@H](CN(C)C(=O)Nc2ccc3c(c2)OCO3)[C@@H](C)CN([C@H](C)CO)C(=O)c2cc(NC(=O)CCCCCC(=O)Nc3ccccc3N)ccc2O1`: “inactive”; for `C[C@@H]1CN([C@H](C)CO)C(=O)c2ccccc2-c2ccccc2CO[C@@H]1CN(C)Cc1ccc(C(F)(F)F)cc1`: “inactive”. With `COc1ccc2c3c([nH]c2c1)[C@H](CO)N(C[C@]13CCN(CC1)C(=O)c1ccccc1F)C(=O)Nc1ccccc1F` the entry was “inactive”; with `O=C1O[C@H](c2ccccc2)[C@H](c2ccccc2)N2[C@H]1[C@@H](C(=O)NC[C@@H](O)c1ccccc1)[C@]1(C(=O)Nc3ccc(C#CC4=CCCCC4)cc31)[C@H]2c1ccccc1OCCO`, “active”; with `CN(C)c1nc2ncnc(N)c2[nH]1`, “inactive”. For `CO[C@H]1CN(C)C(=O)c2cc(NS(C)(=O)=O)ccc2OC[C@H](C)N(C(=O)C2CCOCC2)C[C@@H]1C`, the cytotoxicity call was “inactive”.

For the compound `C[C@H]1CN([C@@H](C)CO)C(=O)Cc2cc(NS(C)(=O)=O)ccc2O[C@H]1CN(C)Cc1ccc(C(=O)Nc2ccccc2N)cc1`, the cytotoxicity call was “inactive”. For the compound `C[C@H]1CCCCO[C@H](CN(C)S(=O)(=O)c2ccc(F)cc2)[C@@H](C)CN([C@@H](C)CO)C(=O)c2cc(NC(=O)CCC(F)(F)F)ccc2O1`, the cytotoxicity call was “inactive”. `COc1ccc(CC(N)C(=O)NC2C(CO)OC(n3cnc4c(N(C)C)ncnc43)C2O)cc1.Cl.Cl` (stereo not given): the cytotoxicity call is “active”.
